# Reference: publication PMC4336329 (PLoS ONE, 2015)
# Hit rate of the full screen: of about 310,000 compounds, about 2,200 (0.71%) showed an effect of 50% or more. The effect is printed as a negative number. The list shows a part of the results.
# Biological target: human ether-à-go-go-related gene (hERG) potassium channel (human, UniProt Q12809)
# Test: primary screen, population patch clamp on CHO cells stably expressing hERG
# Chain of human ether-à-go-go-related gene (hERG) potassium channel (Q12809 whole entry, looked up): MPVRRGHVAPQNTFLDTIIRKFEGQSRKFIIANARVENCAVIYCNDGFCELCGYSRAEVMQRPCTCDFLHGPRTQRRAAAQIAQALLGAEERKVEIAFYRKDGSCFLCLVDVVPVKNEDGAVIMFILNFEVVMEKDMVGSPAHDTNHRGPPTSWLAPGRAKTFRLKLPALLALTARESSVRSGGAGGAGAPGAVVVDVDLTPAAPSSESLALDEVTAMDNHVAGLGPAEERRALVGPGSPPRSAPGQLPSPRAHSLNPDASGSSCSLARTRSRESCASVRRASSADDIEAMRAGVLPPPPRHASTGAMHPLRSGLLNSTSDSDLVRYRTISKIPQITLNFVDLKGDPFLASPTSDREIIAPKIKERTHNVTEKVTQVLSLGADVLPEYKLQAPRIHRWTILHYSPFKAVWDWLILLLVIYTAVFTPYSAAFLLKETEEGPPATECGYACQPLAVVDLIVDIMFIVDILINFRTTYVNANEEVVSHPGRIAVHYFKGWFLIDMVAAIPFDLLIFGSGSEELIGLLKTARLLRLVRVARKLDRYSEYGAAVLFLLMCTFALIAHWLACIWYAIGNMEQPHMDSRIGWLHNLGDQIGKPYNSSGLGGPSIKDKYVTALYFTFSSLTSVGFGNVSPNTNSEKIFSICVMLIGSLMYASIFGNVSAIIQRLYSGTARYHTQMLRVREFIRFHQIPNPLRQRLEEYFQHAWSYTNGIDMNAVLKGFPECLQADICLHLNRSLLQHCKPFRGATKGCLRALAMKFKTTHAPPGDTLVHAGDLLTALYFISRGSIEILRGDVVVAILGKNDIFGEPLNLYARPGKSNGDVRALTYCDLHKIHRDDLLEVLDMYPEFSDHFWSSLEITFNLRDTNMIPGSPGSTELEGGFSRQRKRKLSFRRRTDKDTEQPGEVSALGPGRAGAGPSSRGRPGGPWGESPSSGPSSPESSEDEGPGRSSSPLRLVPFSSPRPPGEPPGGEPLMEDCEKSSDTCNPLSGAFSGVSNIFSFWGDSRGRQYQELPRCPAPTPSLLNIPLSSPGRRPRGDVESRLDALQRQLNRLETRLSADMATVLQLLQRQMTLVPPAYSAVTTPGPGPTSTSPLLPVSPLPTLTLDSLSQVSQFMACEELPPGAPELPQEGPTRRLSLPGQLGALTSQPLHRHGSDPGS
row,SMILES,"hERG current change (%, negative = inhibition) at 1uM [%]"
1,COCCCN(Cc1ccco1)C(=O)Cn1ncc2c(=O)oc3ccc(C)cc3c21,-3.81
2,CCC(C)Sc1nc2c(c(=O)[nH]c(=O)n2C)n1CCc1ccccc1 (centres unmarked),1.22
3,Cc1cccc([C@@H]2[C@@H]3C(=O)N(Cc4ccccc4)C(=O)[C@@H]3[C@]3(C)C(=O)N(c4ccc(Br)cc4)C(=O)N23)c1,7.83
4,N#C/C(=C\C=C\c1ccccc1)C(=O)NCc1ccco1,6.06
5,CSc1ccccc1NC(=O)CN(c1ccccc1Br)S(C)(=O)=O,7.75
6,O=C(Nc1ccccn1)c1ccc(Br)c(S(=O)(=O)N2CCCCC2)c1,3.97
7,COc1ccc2[nH]c(=O)c(CN(Cc3cccs3)Cc3nnnn3Cc3ccccc3)cc2c1,18.9
8,CCCCCCCC(=O)NN=C1CCN(Cc2ccccc2)CC1,11.4
9,C=CCN(C1CCCCC1)S(=O)(=O)c1ccc2c(c1)oc(=O)n2C,-4.3
10,CCc1c(O)nc(SC2CC(=O)N(c3ccccc3)C2=O)[nH]c1=O (centres unmarked),8.68
11,Cc1c(C(=O)N2CCN(Cc3ccc4c(c3)OCO4)CC2)sc2ncnc(N3CCN(c4ccccc4)CC3)c12,19.8
12,CCOC(=O)c1cc(NC(=O)N(C(C)C)C2CCCCC2)c(C)nc1C,2.43
13,N#CCCN(CCC#N)C(=S)NC1CC2C=CC1C2 (centres unmarked),6.58
14,CCn1c2ccccc2c2cc(NC(=O)COC(=O)c3cccc(S(=O)(=O)NC)c3)ccc21,7.35
15,CSc1ncccc1C(=O)OCC(=O)Nc1ccc2c(c1)CCC2,12.5
16,CCc1cc2c(COC(=O)c3cccc(S(C)(=O)=O)c3)cc(=O)oc2cc1O,13.7
17,COc1ccc(N(CC(=O)N2CCCCCC2)S(=O)(=O)c2ccccc2[N+](=O)[O-])c(OC)c1,2.98
18,CC(C)(C)c1ccc(OCC(=O)NC2CCS(=O)(=O)C2)cc1 (centres unmarked),5.17
19,Cc1ccc(NC(=O)c2ccc(CSc3ccccn3)cc2)cc1,21.2
20,COc1ccc(C2C(C#N)=C(N)N(c3ccccc3)C3=C2C(=O)CCC3)cc1Cn1cc([N+](=O)[O-])cn1 (centres unmarked),-1.41
21,Cc1ccc(C(=O)NCc2ccc3c(c2)CCO3)cc1C,2.48
22,CN(CC(=O)NCc1ccncc1)S(=O)(=O)c1cc(Cl)ccc1Cl,4.88
23,CC(CCc1ccccc1)N(C)CC(O)c1cccc([N+](=O)[O-])c1.Cl (centres unmarked),-56.8
